± gives the uncertainty stated by the source. Shown are siRNA guide strands that differ only in the seed, positions 2 to 7.
Assays:
3LL = assay: cell viability relative to siNT1 control; higher = less toxic; settings: concentration: 10 nM; 96 h; Mus musculus;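 further: Luminescence-based viability of cells reverse transfected in 384-well plates with lipid-complexed siRNAs built on a non-toxic 19mer backbone whose passenger strand carries 2′-O-methyl groups at positions 1 and 2, triplicates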
Protocol: (§1)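 Arrayed screen of 4096 siRNA duplexes, each carrying one of all possible 6mer seeds at guide-strand positions 2-7 in a fixed neutral 19mer scaffold (constant flanks: U at position 1, then ACAUGUAAACCA, plus a 3' AA overhang). The passenger strand is 2'-O-methylated at positions 1-2 so only the guide strand loads into RISC. Duplexes were reverse-transfected at 10 nM with RNAiMAX in triplicate in 384-well plates; viability was read by CellTiter-Glo ATP content 96 h after transfection. Values are % viability normalised to lipid-only wells (HeyA8, H460, M565) or to siNT1 (3LL).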

H460 = assay: cell viability relative to lipid-only control; HeyA8 human ovarian and H460 human lung cancer; M565 mouse liver and 3LL mouse lung cancer; siNT1 is a non-toxic control siRNA; higher = less toxic; settings: concentration: 10 nM; 96 h; Homo sapiens
Protocol: as §1

HeyA8 = assay: as above; settings: concentration: 10 nM; 96 h; Homo sapiens
Protocol: as §1

M565 = assay: as above; settings: concentration: 10 nM; 96 h; Mus musculus
Protocol: as §1
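Wherever cell viability relative to lipid-only control is given: reverse lipid transfection in 384-well plates, in triplicate, of duplexes on a non-toxic 19mer backbone with passenger strand 2′-O-methylated at positions 1 and 2, luminescence viability read-out.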

Sequence | cell viability (3LL) [%] | cell viability (H460) [%] | cell viability (HeyA8) [%] | cell viability (M565) [%]
UAGGGACACAUGUAAACCAAA | 59 ± 12 | 16.7 ± 2.7 | 14 ± 0.99 | 4.76 ± 1.1
UAGGGAGACAUGUAAACCAAA | 77.3 ± 6.9 | 75.7 ± 3.5 | 65.7 ± 4.7 | 66.9 ± 14
UAGGGAUACAUGUAAACCAAA | 61.4 ± 12 | 42.1 ± 0.47 | 19.2 ± 1.3 | 29.9 ± 4.3
UAGGGCAACAUGUAAACCAAA | 74.5 ± 19 | 58.4 ± 4 | 36.9 ± 3.3 | 29.6 ± 10
UAGGGCCACAUGUAAACCAAA | 31.8 ± 4.2 | 28.1 ± 3 | 3.62 ± 0.12 | 2.41 ± 0.67
UAGGGCGACAUGUAAACCAAA | 63.1 ± 8.8 | 51 ± 2.1 | 43.5 ± 3.2 | 30.9 ± 7.3
UAGGGCUACAUGUAAACCAAA | 32.1 ± 11 | 49.8 ± 2.3 | 10.8 ± 0.45 | 7.66 ± 2.9
UAGGGGAACAUGUAAACCAAA | 79.3 ± 4.7 | 62.6 ± 4.4 | 55.7 ± 7 | 20.2 ± 4.6
UAGGGGCACAUGUAAACCAAA | 15.5 ± 6.6 | 22.1 ± 3.5 | 6.52 ± 0.95 | 24.1 ± 6.1
UAGGGGGACAUGUAAACCAAA | 66.7 ± 15 | 25.4 ± 5.8 | 5.57 ± 0.23 | 6.97 ± 0.42
UAGGGGUACAUGUAAACCAAA | 25.4 ± 1.6 | 31.7 ± 2 | 29 ± 3 | 21.3 ± 4.2
UAGGGUAACAUGUAAACCAAA | 90.9 ± 9.3 | 80.9 ± 2.1 | 50.6 ± 5.2 | 54.5 ± 12
UAGGGUCACAUGUAAACCAAA | 8.98 ± 2.3 | 30.8 ± 1.2 | 7.6 ± 0.27 | 9.82 ± 2.6
UAGGGUGACAUGUAAACCAAA | 81.2 ± 13 | 61.5 ± 4.7 | 64.82 ± 0.64 | 27.6 ± 5.9
UAGGGUUACAUGUAAACCAAA | 36.3 ± 6.8 | 57.3 ± 1.5 | 28.6 ± 2.1 | 16.9 ± 5.8
UAGGUAAACAUGUAAACCAAA | 86.4 ± 10 | 69.7 ± 12 | 69.9 ± 4 | 56.7 ± 6.3
UAGGUACACAUGUAAACCAAA | 32.2 ± 1 | 60.2 ± 8.1 | 48.2 ± 5.2 | 14.4 ± 2.5
UAGGUAGACAUGUAAACCAAA | 71.3 ± 7 | 62.9 ± 17 | 68.5 ± 3.5 | 32.7 ± 1.2
UAGGUAUACAUGUAAACCAAA | 23 ± 3 | 59.5 ± 14 | 48.5 ± 5.3 | 46.9 ± 9.5
UAGGUCAACAUGUAAACCAAA | 71.4 ± 5.7 | 82 ± 18 | 62.1 ± 1.9 | 38.8 ± 4.5
UAGGUCCACAUGUAAACCAAA | 11.2 ± 2.1 | 32.8 ± 12 | 27.1 ± 0.84 | 13.4 ± 0.87
UAGGUCGACAUGUAAACCAAA | 73.9 ± 4.5 | 68.2 ± 19 | 48.4 ± 4.6 | 47.8 ± 2.8

— the supplement of paper PMC6206098
